Results on 84 molecules are retold here after ChEMBL document CHEMBL4888484, “Replenishing the malaria drug discovery pipeline: Screening and hit evaluation of the MMV Hit Generation Library 1 (HGL1) against asexual blood stage Plasmodium falciparum ,using a nano luciferase reporter read-out” (2022).

Among all 150,000 compounds or so, about 540 (0.36%) showed an effect of 50% or more. The list shows a part of the results.

This assay relates to Plasmodium falciparum. In words: Primary screen in NF54 nanoGlo assay, in single point, at 2uM, 72h; a lower Z score goes with more inhibition. The class given is functional, Erythrocyte. The following applies: timepoint 72 hour.
One may read the % Inhibition as the relative decrease from the control value, in per cent. Turning to `CCCCN(CC)C(=O)c1ccc(Cl)cc1Cl`, the “% Inhibition” value is given as 5% and the Z score is given as -0.71.
On the same counts, the results for `COC(=O)N[C@@H](C)C(=O)N1CCc2n[nH]cc2C1` are -18% and 1.59.
For `CN(Cc1cscn1)C(=O)CN1CCCCCC1=O`, the “% Inhibition” value is -3% and the Z score is 0.37.
On the same counts, the results for `Cc1nn(C)c(C)c1CN(C)c1nccnc1C#N` are -10% and 1.48.
Taken in the same sequence, the figures for `O=C(CNS(=O)(=O)N1CCc2ccccc2C1)N1CCCCC1` were -6% and 0.83.
On to `CCc1nccn1C1CCCN(C(C)c2nc(C)cc(O)n2)C1` (stereo not drawn), for which the “% Inhibition” value is given as -15% and the Z score turned out to be 1.29.
On the same counts, the results for `CN(C)C(=O)CN1C(=O)[C@@H]2CC[C@H]1CN(C(=O)c1ccc(F)cc1Cl)C2` are -2% and 0.28.
Taken in the same sequence, the figures for `O=C(Cc1c(F)cccc1Cl)N1CC(COc2ccc3c(c2)OCO3)C1` were 6% and -0.86.
Taken in the same sequence, the figures for `CC1(C)[C@H]2CC[C@]1(C)[C@H](OC(=O)C1CCCN(C(N)=O)C1)C2` (stereo partly drawn) were -16% and 1.43.
For the molecule `CC1CCCCN1C(=O)C1CC(=O)c2sc(NC(=O)C3CCC3)nc2C1` (stereo not drawn), the “% Inhibition” value is on record as -6% and the Z score came out at 0.85.
In the case of `Cc1ccc(=O)n(CC(=O)N2CCC[C@H](CCc3ccc(F)cc3F)C2)n1`, the “% Inhibition” value is given as -14% and the Z score is reported as 2.17.
Taken in the same sequence, the figures for `CCCCOc1ccc(C)cc1-c1nc(C)nc2c1cnn2C` were -9% and 1.67.
Taken in the same sequence, the figures for `Cc1cc(=O)c(CO)nn1CC(=O)N(C(C)C)C(C)C` were -8% and 1.58.
As for `Cc1nn(C(C)(C)C)cc1C(=O)N1CCN(C)[C@]2(CCOC2)C1`, the “% Inhibition” value is listed as -4% and the Z score worked out at 0.6.
Regarding `CN(CCCc1nccn1C)c1cc(N2CCCC2)nc(N)n1`, the “% Inhibition” value is recorded as -14% and the Z score amounted to 2.64.
On the same counts, the results for `CC(C)Oc1ccc([C@@]2(C)NC(=O)NC2=O)cc1` are -3% and 0.55.
On the same counts, the results for `CC(=O)N1CCCc2cc(NCc3ccc(CO)o3)ccc21` are -17% and 2.04.
On the same counts, the results for `O=c1cc(-c2ccccc2)cc(-c2ccccc2)n1Cc1ccccc1` are 8% and -1.24.
On to `O=C(NCCCn1cccn1)c1cn2c(n1)C(=O)N[C@H](c1ccc(F)cc1)C2`, for which the “% Inhibition” value is given as 0% and the Z score is recorded as -0.04.
Taken in the same sequence, the figures for `CC(C)CNC(=O)CCN(c1nc(-c2ccco2)nc2ccccc12)C1CCCCC1` were 0% and 0.
As for `Cc1nn(CCC(=O)N2CCN(C)[C@H](c3ccccc3)C2)c(C)c1C`, the “% Inhibition” value is 1% and the Z score is listed as -0.16.
On the same counts, the results for `NC(=O)Nc1cc(Cl)c(Cl)cc1F` are -2% and 0.23.
On the same counts, the results for `O=C(Cc1c(Cl)cccc1Cl)N1CCC[C@H]1c1nnn[nH]1` are -6% and 0.8.
On the same counts, the results for `C=CCn1c(=O)c2sc(N(CC)CC)nc2n(CC(=O)Nc2ccc(CC)cc2)c1=O` are -30% and 2.68.
As for `CCc1cnc(C)nc1N1CCC[C@@]2(CCC(=O)N(Cc3ccccn3)C2)C1`, the “% Inhibition” value was -14% and the Z score is listed as 1.85.
On the same counts, the results for `O=C(O)[C@H]1CCCCN1C(=O)c1coc2ccccc12` are -16% and 2.2.
Taken in the same sequence, the figures for `COc1cccc(-c2nc(CCn3c(C)cc(=O)cc3O)no2)c1OC` were -12% and 2.29.
Taken in the same sequence, the figures for `Cc1cc(CS(=O)(=O)[C@@H](C)C(=O)N2CCCc3ccccc32)no1` were 0% and -0.03.
For `Cc1c(NC(=O)c2cc3nc(-c4ccc(Cl)c(Cl)c4)cc(C(F)(F)F)n3n2)c(=O)n(-c2ccccc2)n1C`, the “% Inhibition” value was found to be 29% and the Z score is listed as -3.23.
On the same counts, the results for `COc1cc(NS(=O)(=O)c2ccccc2F)ccc1N1CCCCC1=O` are -16% and 2.43.
Taken in the same sequence, the figures for `Clc1ccc([C@@H]2CN(Cc3ccc(-c4cc[nH]n4)s3)CCO2)cc1` were -19% and 2.55.
On the same counts, the results for `Cc1cnc(-c2ccc(C(=O)N[C@@H](C)Cc3cnccn3)cc2)nc1N(C)C` are -4% and 0.74.
Take `Cc1nn(-c2ccc(Cl)cc2)cc1-c1noc(C(=O)NCCc2ccccc2)n1`: the “% Inhibition” value was -12% and the Z score is reported as 1.48.
Taken in the same sequence, the figures for `CC1=NS(=O)(=O)N(C)C=C1C(=O)OCc1ccccc1` were -12% and 2.33.
As for `COc1cccc(-n2c(=O)n(C3CCCC3)c(=O)c3c2ncn3Cc2cccc(F)c2)c1`, the “% Inhibition” value is recorded as -13% and the Z score is listed as 1.5.
On the same counts, the results for `COCC(C)(C)C(=O)NCc1nc(C(F)(F)F)c[nH]1` are -5% and 0.86.
Taken in the same sequence, the figures for `Nc1ncccc1CN1CCN(C(=O)N2CCCC2)C[C@@H](O)C1` were -7% and 1.21.
Taken in the same sequence, the figures for `Cc1ccc(-c2nccc(Nc3ccc(C(=O)Nc4ccc5c(c4)OCCO5)cc3)n2)cc1` were 0% and 0.03.
With `Cc1nnc(CNC(=O)c2ccc(CN3CCC(C)CC3)o2)s1`, the “% Inhibition” value is reported as -5% and the Z score is 1.06.
Taken in the same sequence, the figures for `C[C@H]1CCC(=O)N1c1ccc(NC(=O)c2cc(-c3cccs3)nn2C)cc1` were 7% and -1.08.
On the same counts, the results for `COc1ccc(S(=O)(=O)N(C)c2ccnc(C(=O)NCc3cccnc3)c2)cc1` are -13% and 2.12.
Turning to `Cc1ccc(CN2CC[C@@](C)(O)[C@H](N3CCCC3)C2)o1`, the “% Inhibition” value is on record as -10% and the Z score turned out to be 1.27.
Taken in the same sequence, the figures for `CNc1nc2c(c(C(=O)N3CCCC3)n1)CN(C(=O)CCc1ccnn1C)CC2` were -4% and 0.69.
Taken in the same sequence, the figures for `Cn1cc(Cl)c(C(=O)NC(C)(C)CN2CCCCCC2)n1` were -8% and 1.07.
On the same counts, the results for `COc1cc(C2CN(C(=O)Cc3ccccc3)CC2C(=O)NCC(C)C)cc(OC)c1OC` (stereo not drawn) are -1% and 0.18.
For `N#Cc1cc(Br)ccc1S(=O)(=O)N1CC2CCC1C2` (stereo not drawn), the “% Inhibition” value is -4% and the Z score is 0.66.
Taken in the same sequence, the figures for `CC(C)(C)CN(CCS(C)(=O)=O)Cc1ccccc1` were -5% and 0.44.
Taken in the same sequence, the figures for `O=C1Nc2ccccc2S(=O)(=O)N1CC#Cc1ccc(Cl)cc1` were 0% and 0.05.
For the molecule `CC1CC(NC(=O)N2Cc3cc(F)c(F)cc3C2)CN1C1CC1` (stereo not drawn), the “% Inhibition” value amounted to 8% and the Z score is recorded as -1.49.
Taken in the same sequence, the figures for `COc1cc(-c2cnc3ccccc3c2)cc2c1OCCN(c1cc(N)ncn1)C2` were 1% and -0.09.
Take `NC(=O)C1CCN(c2ccc(NC(=O)CC3CC4CCC3C4)cc2)CC1` (stereo not drawn): the “% Inhibition” value is given as -8% and the Z score was 1.11.
Taken in the same sequence, the figures for `CCc1nn(C)c(CC)c1CN1CC[C@H](C(=O)N(C)C)C1` were -4% and 0.55.
Taken in the same sequence, the figures for `C=CCCc1ccccc1NC(=O)N1C[C@H]2[C@H](OC)CS(=O)(=O)[C@H]2C1` were -4% and 0.41.
Taken in the same sequence, the figures for `C[C@H]1CC[C@@](C)(CNC(=O)Nc2cn(C)nc2C2CC2)C1(C)C` were 2% and -0.25.
For `Cn1cc([C@H]2N(C(=O)c3cc4cnccc4[nH]3)CC2(C)C)cn1`, the “% Inhibition” value was -3% and the Z score was found to be 0.4.
Taken in the same sequence, the figures for `Cc1ncn(Cc2cc(-c3ccccc3)on2)c(=O)c1C` were -1% and 0.16.
On the same counts, the results for `O=C(O)c1ccc(S(=O)(=O)N2CCc3ccccc3CC2)c(F)c1` are 26% and -2.94.
On the same counts, the results for `C[C@H](C#N)CN(C)CC(=O)N1CCC(c2ccccc2)=N1` are -1% and 0.07.
On to `CNc1nc(C)cc(N2CC[C@H]3[C@H](CCC(=O)N3CCc3ccccc3)C2)n1`, for which the “% Inhibition” value was determined as 3% and the Z score is listed as -0.53.
Taken in the same sequence, the figures for `Cc1nnc(CN2CCO[C@@H](CC(C)C)C2)s1` were 1% and -0.15.
On the same counts, the results for `Cc1nc([C@H](C)NCc2ccc(-c3cccc(Cl)c3Cl)o2)n[nH]1` are -6% and 0.79.
On the same counts, the results for `COc1cnc(C(=O)NC[C@H]2COCCO2)nc1` are -6% and 1.16.
For `CS(=O)(=O)N1CCC(NC(=O)c2ccc(Oc3ccccc3)cc2)CC1`, the “% Inhibition” value is given as -2% and the Z score was 0.36.
On the same counts, the results for `Nc1ccc(-c2ccc(NC3CCCC3)nn2)cn1` are -16% and 1.48.
Taken in the same sequence, the figures for `O=C(Nc1ccc(Br)cc1)c1ccc2c(-c3ccccc3)onc2c1` were 11% and -1.05.
As to `O=C(O)CCN(C(=O)CCc1ccc(Cl)cc1Cl)C1CCOCC1`, the “% Inhibition” value is reported as -10% and the Z score stood at 1.38.
Take `CCOc1ccccc1NC(=O)N(CC(=O)N(CCc1ccccc1)Cc1ccco1)C(C)C`: the “% Inhibition” value was -10% and the Z score was found to be 1.42.
Taken in the same sequence, the figures for `Nc1cccc(C(=O)N[C@H]2CCOC3(CCOCC3)C2)n1` were 14% and -1.94.
On the same counts, the results for `O=C(c1ccccn1)N1CC[C@H](Nc2ncc(C(F)(F)F)cc2Cl)[C@@H](O)C1` are -9% and 1.14.
On the same counts, the results for `Cc1cc(C(=O)N2CCC2)c(C)n1-c1ccc2c(c1)OCCO2` are -9% and 1.75.
Consider `COC[C@@H]1[C@H](C(=O)Nc2ccc3c(c2)N(C)CCC3)CCC(=O)N1C`, for which the “% Inhibition” value is on record as -13% and the Z score is reported as 1.52.
On the same counts, the results for `C[C@@H](CNS(=O)(=O)C1CC1)N(C)S(=O)(=O)C1CC1` are -8% and 1.28.
Taken in the same sequence, the figures for `Cc1[nH]c(=O)[nH]c1C(=O)NC1(c2c(Cl)cccc2Cl)CC1` were -11% and 1.43.
Taken in the same sequence, the figures for `CC(C)(CS(C)(=O)=O)C(=O)N1C[C@H](c2ccccc2)C2(CCC2)C1` were -5% and 0.63.
`CCOC(=O)c1c(N)c2cnccc2n1C`: the “% Inhibition” value is reported as -4% and the Z score is on record as 0.51.
On the same counts, the results for `CC(C)Oc1c(Cl)cccc1NCC(=O)NCC(F)(F)F` are -5% and 0.68.
Take `CCN(CC)c1cc(-c2cnn(C)c2)nc(N)n1`: the “% Inhibition” value is listed as -1% and the Z score worked out at 0.25.
Consider `Nc1nccc(-c2cnc(-c3ccccn3)s2)n1`, for which the “% Inhibition” value is recorded as -20% and the Z score amounted to 2.33.
On to `O=C(c1ccccc1)N1C[C@H]2CC[C@@H](C1)N(Cc1cc3ccccc3o1)C2`, for which the “% Inhibition” value was -8% and the Z score stood at 1.51.
On the same counts, the results for `CN(CCCc1cc(-c2ccccc2)n[nH]1)C(=O)[C@@H]1CCCCN1` are -7% and 0.89.
Taken in the same sequence, the figures for `CC(C)(C)c1noc(C2CN(c3ccc(Br)cc3C#N)C2)n1` were -12% and 2.3.
On the same counts, the results for `O=C(c1ccc(Cl)s1)N1CC(OCC(F)(F)F)C1` are -11% and 1.78.
For `Cc1[nH]c2ccccc2c1C(=O)N1CCO[C@H](c2cc(F)c(Cl)cc2Cl)C1`, the “% Inhibition” value is reported as -11% and the Z score came out at 1.43.
Regarding `CN(CCc1ccccn1)C1CCN(Cc2ccccc2)CC1`, the “% Inhibition” value is -4% and the Z score is reported as 0.73.
